Test results reported in PubChem BioAssay AID1347428 (National Center for Advancing Translational Sciences (NCATS), 2020).
The whole screen tested about 91,000 compounds, of which about 290 (0.32%) were called active. This list was built around the results that the source calls inconclusive (neither active nor inactive); the mix of calls is not that of the screen. The call rests on the fitted dose curve; in most records, active means well fitted inhibition curve with a large enough effect; inconclusive means small, poorly fitted or top-dose-only effect; inactive means no such curve, though single readings can be large or run the other way. Potencies beside an inconclusive call are fits to weak or partial responses and may not hold up.

target: Single-stranded DNA cytosine deaminase (Homo sapiens) (UniProt Q9GZX7); experiment: Primary qHTS assay for inhibitors of Activation Induced Cytidine Deaminase (AID): AID signal; conditions: AID deamination FRET fluorescence, UDG-coupled, 4 h; series mostly up to 115 µM; further: nearly all actives have a fitted effect of over 25% in size
Potency means the concentration at half of the fitted maximal effect; tags describe the fitted curve by direction and shape.

Sequence of UniProt Q9GZX7 (Q9GZX7 whole entry, looked up): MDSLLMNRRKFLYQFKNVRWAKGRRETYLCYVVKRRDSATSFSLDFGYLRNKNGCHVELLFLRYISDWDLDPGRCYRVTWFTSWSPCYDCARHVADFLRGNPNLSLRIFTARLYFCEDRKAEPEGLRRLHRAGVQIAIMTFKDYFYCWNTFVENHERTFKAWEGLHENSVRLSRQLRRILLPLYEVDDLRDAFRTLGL

Compound | Potency
Cc1ccn2c(Nc3ccccc3)c(-c3c[nH]c4ccccc34)nc2c1 | inactive
COc1ccccc1Nc1nn2c(=O)c3ccc(C(=O)NCCc4ccccc4)cc3nc2s1 | inconclusive: 79.4 µM [inhibitor, single point]
COc1ccc(C(C)=O)cc1CSc1nc(Nc2ccc(F)c(F)c2)c2ccccc2n1 | inconclusive: 44.7 µM [inhibitor, partial curve]
COc1cccc(N2CCN(C(=O)c3ccc4nc(N5CCC(C)CC5)sc4c3)CC2)c1 | inconclusive: 25.1 µM [inhibitor, full curve, poor fit]
CCOc1ccc(NC(=O)CC2C(=O)N(c3ccc(OC)cc3)C(=O)N2CCC2=CCCCC2)cc1 (stereo not given) | inactive
CCCCCn1c(CCCNC(=O)c2ccccc2OC)nc2ccccc21 | inconclusive: 70.8 µM [inhibitor, single point]
COc1ccccc1-c1nn(CCC(=O)Nc2ccc(C)cc2)c2nc(C)cc(C)c12 | inconclusive: 44.7 µM [inhibitor, partial curve, poor fit]
CCCn1c2ccccc2c2cnn(CC(=O)N3CCCC(C(=O)OCC)C3)c(=O)c21 (stereo not given) | inactive
COc1ccc2cnn(CC(=O)Nc3ccc(Cl)cc3)c(=O)c2c1OC | inactive
Nc1ccccc1C(=O)NCC(F)(F)F | inactive
COc1ccc(S(=O)(=O)N(CC(=O)Nc2ccc(Br)cc2)Cc2ccccc2)cc1 | inconclusive: 31.6 µM [inhibitor, full curve]
CN(Cc1ccccc1)C(=O)c1cccc(-c2cnc3ccccc3c2)c1 | inconclusive: 56.2 µM [inhibitor, partial curve, poor fit]
Cc1ccc(-n2ncc(C(=O)NCCN3CCC(Cc4ccccc4)CC3)c2C2CCN(C(=O)OC(C)(C)C)CC2)cc1 | inconclusive: 56.2 µM [inhibitor, partial curve, poor fit]
O=C(NCC(c1cccnc1)N1CCc2ccccc21)c1ccc(Cl)cc1 (stereo not given) | inconclusive: 44.7 µM [inhibitor, partial curve, poor fit]
CC1CCCc2sc(N)c(C#N)c21 (stereo not given) | inactive
COC(=O)Cc1c(C)c2ccc(O)cc2oc1=O | inactive
CCc1ccc2oc(-c3cc(NC(=O)c4cccs4)ccc3Cl)nc2c1 | inconclusive: 11.2 µM [inhibitor, full curve, poor fit]
Cc1ccc2c(CN3CCCCCC3)cc(=O)oc2c1 | inactive
Cc1cccc(N2CCN(CCCNc3ncnc4onc(-c5ccc(F)cc5)c34)CC2C)c1 (stereo not given) | inconclusive: 89.1 µM [inhibitor, partial curve, poor fit]
Cc1oc(-c2cccc(Cl)c2)nc1Cn1c(SCc2ccc(F)cc2)nc2cccnc21 | inconclusive: 31.6 µM [inhibitor, full curve]
COc1cc2c(cc1OC)C(COc1cc(C)cc(C)c1)N(C(=O)C(C)(C)C)CC2 (stereo not given) | inconclusive: 50.1 µM [inhibitor, partial curve, poor fit]
CC(=O)C1=CC[C@H]2[C@@H]3CC[C@H]4C[C@@H](O)CC[C@]4(C)[C@H]3CC[C@]12C | inactive

Compound | Potency
Cc1ccsc1CN(Cc1ccco1)c1cnc(S(C)(=O)=O)nc1C(=O)Nc1ccc(Cl)cc1 | inconclusive: 28.2 µM [inhibitor, full curve]
C=CCn1c(SCCCc2ccccc2)nc2c1c(=O)n(C)c(=O)n2C | inconclusive: 56.2 µM [inhibitor, partial curve, poor fit]
COc1ccccc1Nc1cc(C(=O)NCCCN(C)C2CCCCC2)c2ccccc2n1 | inconclusive: 31.6 µM [inhibitor, partial curve, poor fit]
COC(=O)c1ccccc1NC(=O)NCc1ccc2c(c1)CCN2C(=O)c1ccccc1 | inconclusive: 50.1 µM [inhibitor, partial curve]
CN(Cc1ccccc1)c1nc2c(S(=O)(=O)c3cccc(Cl)c3)nnn2c2ccsc12 | inconclusive: 63.1 µM [inhibitor, partial curve, poor fit]
COc1cccc(C(=O)Nc2c(N3CCCC3)c3ccccc3oc2=O)c1 | inactive
COc1c(C2CC(=O)Nc3c2ncn3-c2cccc(C(F)(F)F)c2)cc2c(c1OC)OCO2 (stereo not given) | inconclusive: 79.4 µM [inhibitor, single point]
Cc1ccc(S(=O)(=O)c2nc(-c3cccs3)oc2N2CCC(C)CC2)cc1 | inconclusive: 20 µM [inhibitor, single point]
COc1ccc(C(=O)NCC(=O)NNC(=O)CSc2ccc(C)cc2)cc1 | inactive
CCc1ccccc1Nc1sc(C(=O)c2ccccc2)c(N)c1S(=O)(=O)c1ccccc1 | inconclusive: 89.1 µM [inhibitor, partial curve, poor fit]
COc1ccc(C)cc1NC(=O)CSc1nc(=O)n(Cc2ccco2)c2c1CCC2 | inconclusive: 89.1 µM [inhibitor, single point]
O=C(NCc1ccccc1)C1CCN(c2ncnc3c2nc2n3CCCCC2)CC1 | inconclusive: 3.55 µM [inhibitor, partial curve, poor fit]
CCOc1ccc(OCC)c(NC(=O)c2cnn(-c3ccc(F)cc3)c2-n2cccc2)c1 | inconclusive: 70.8 µM [inhibitor, single point]
Cc1cccc(C(=O)NCCc2nc3ccccc3n2CCC(C)C)c1 | inconclusive: 79.4 µM [inhibitor, partial curve, poor fit]
Cc1cccc(OCC(=O)Nc2c(C(=O)Nc3ccc(F)cc3)oc3ccccc23)c1 | inconclusive: 28.2 µM [inhibitor, single point]
CSc1ccc(C2c3c(-c4ccccc4O)n[nH]c3C(=O)N2Cc2ccncc2)cc1 (stereo not given) | inconclusive: 79.4 µM [inhibitor, partial curve, poor fit]
Clc1ccc(-n2nnnc2C2(Nc3ccccc3)CCCCC2)cc1 | inconclusive: 31.6 µM [inhibitor, partial curve, poor fit]
CCCCN1C(=O)c2[nH]nc(-c3ccccc3O)c2C1c1ccc(OCc2ccccc2)c(OC)c1 (stereo not given) | inconclusive: 63.1 µM [inhibitor, partial curve, poor fit]
Cc1ccc(C2CCCN2Cc2ccc(C#N)cc2)cc1 (stereo not given) | inactive
CC(=O)c1ccc(-c2ccc(C(=O)OC(C)C#N)o2)cc1 (stereo not given) | inactive
CC(=O)N1CCN(c2ncnc3c2c(-c2ccccc2)cn3-c2cccc(C)c2)CC1 | inconclusive: 56.2 µM [inhibitor, partial curve]
CCOc1ccc(CNC(=O)C2CCCN(c3nn4cc(-c5ccc(OC)cc5)nc4s3)C2)cc1 (stereo not given) | inconclusive: 39.8 µM [inhibitor, partial curve, poor fit]

Compound | Potency
Cc1ccc(-n2nc(C(=O)N(C)c3ccc(C)c(C)c3)c3c4ccccc4n(C)c3c2=O)cc1 | inconclusive: 35.5 µM [inhibitor, partial curve]
COc1ccc(OC)c(-c2cc(C(=O)Nc3c(C)nn(Cc4ccc(C)cc4)c3C)no2)c1 | inactive
Cc1ccc(-n2ncc3c(NCCCN(C)C)ncnc32)cc1Cl | inconclusive: 100 µM [inhibitor, single point]
Cc1cccc(-c2nc(C#N)c(N3CCN(Cc4ccccc4)CC3)o2)c1 | inactive
COc1ccc(-c2noc(CSc3nnc(Cc4ccccc4)n3-c3ccc(F)cc3)n2)cc1 | inconclusive: 44.7 µM [inhibitor, partial curve, poor fit]
O=C(C1=Cc2sc3c(c2CS1)CCCC3)N1CCCCC1 | inactive
CCOC(=O)c1[nH]c2c(c1Cc1ccccc1)C(=O)CC(c1ccc(C(C)(C)C)cc1)C2 (stereo not given) | inconclusive: 15.8 µM [inhibitor, full curve, poor fit]
CCN(CC)CCCNC(=O)c1ccc2c(c1)sc1nc(-c3ccc(C)cc3)cn12 | inconclusive: 79.4 µM [inhibitor, partial curve, poor fit]
Cc1nn(CC(=O)Nc2nc3ccccc3s2)c(=O)c2ccccc12 | inactive
COc1ccc(-c2nc3ccccc3o2)cc1NC(=O)c1cccnc1 | inactive
Oc1ccc2ccccc2c1C=Nc1cc(Cl)cc(Cl)c1 | inconclusive: 50.1 µM [inhibitor, partial curve, poor fit]
Clc1ccccc1Cn1c(-c2cccs2)nc2ccccc21 | inconclusive: 22.4 µM [inhibitor, partial curve, poor fit]
CCOC(=O)c1c(C)[nH]c(C)c1S(=O)(=O)N1CCN(c2cc(Cl)ccc2C)CC1 | inconclusive: 50.1 µM [inhibitor, partial curve, poor fit]
CCOc1ccc(C(=O)Nc2ccc3nc(N(CC)CC)cc(C)c3c2)cc1 | inactive
NCCS(N)(=O)=O | inactive
CC(Oc1ccc(C(=O)c2ccccc2)cc1)C(=O)N1CCc2ccccc21 (stereo not given) | inactive
COc1cc(-c2cc(OC)c3c(C)oc(C)c3c(=O)c2)ccc1OC(=O)c1cccc(C)c1 | inconclusive: 79.4 µM [inhibitor, partial curve, poor fit]
c1ccc(CCNc2nc(Nc3ccccc3)c3nccnc3n2)cc1 | inactive
COc1ccc(CNC(=O)c2nn(C)c3c2CSc2ccccc2-3)cc1 | inconclusive: 31.6 µM [inhibitor, full curve]
CCOc1ncccc1CNC(=O)C1CCCN1S(C)(=O)=O (stereo not given) | inactive
COc1ccc(-c2noc(N3CCC(C(=O)N4CCN(c5cccc(OC)c5)CC4)CC3)n2)cc1 | inconclusive: 56.2 µM [inhibitor, partial curve, poor fit]
